The list shows a part of the results.

The target in this experiment is T1, OsWOX13 (Oryza sativa, UniProt Q5QMM3 1-267).
T1 sequence: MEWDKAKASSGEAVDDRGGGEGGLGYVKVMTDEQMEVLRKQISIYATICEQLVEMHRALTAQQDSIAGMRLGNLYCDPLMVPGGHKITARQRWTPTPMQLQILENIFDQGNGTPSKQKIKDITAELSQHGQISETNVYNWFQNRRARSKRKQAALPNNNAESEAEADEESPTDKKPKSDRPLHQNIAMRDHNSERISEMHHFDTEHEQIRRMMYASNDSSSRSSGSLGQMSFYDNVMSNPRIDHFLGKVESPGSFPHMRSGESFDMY
The experiment is described as follows: protein-binding microarray (RPBM); PBS, 2% BSA, 51.3 ng/ul salmon testes DNA, 50 uM zinc acetate, 200 nM TF, 25 C, 1 h; high values mean tight binding. As to conditions: protein: recombinant; tags: N-terminal polyhistidine and DsRed monomer fusion (pET32a); label: CyDye5-dUTP incorporated in the synthesized complementary strand; 3' TTTTT single-stranded linker to array surface; dsDNA, one strand shown. In a few lines:
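For the binding signal, per-feature fluorescence intensity was read in arbitrary units on an Axon 4000B scanner. Before scanning, a 2% BSA-blocked custom Agilent array made double-stranded with Cy5-dUTP was washed after 1 h at 25 °C with 200 nM protein and 50 µM zinc acetate. The proteins were Ni–NTA-purified transcription factors with N-terminal polyhistidine and DsRed fusions, expressed in E. coli BL21-CodonPlus.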
“GTAATTGAGAAAGTAAATACCAATATACTCCCTCCGGTTACGGAGTCACCTAGTGCAG”: the binding signal was 11000 fluorescence intensity (a.u.). On to “GTAGAATTATATTACAATTATACTATAAGTTATGGTTACCCGGAGTCACCTAGTGCAG”, for which the binding signal is 5770 fluorescence intensity (a.u.). With “TATGACTAATTAACTACACCTCTTCTTCCACTATAAGTACCGGAGTCACCTAGTGCAG”, the binding signal is 25100 fluorescence intensity (a.u.). “GAGATTGACAGTTCAAAGGAAATCAGAGGTGAGTGATTCTCGGAGTCACCTAGTGCAG”: the binding signal is 16100 fluorescence intensity (a.u.). As for “TTGGAGGGGATATGATTTCTGTTATACTGTATCAGATTATCGGAGTCACCTAGTGCAG”, the figure is 3230 fluorescence intensity (a.u.); as for “TATAATTAAATCTTTACAACAAGATATTGCATGATTATATCGGAGTCACCTAGTGCAG”, 10800 fluorescence intensity (a.u.); as for “GATGATGATGAGGAGGATGACCAGGATGGTGGAGACTGGGCGGAGTCACCTAGTGCAG”, 4950 fluorescence intensity (a.u.). Regarding “CTCATAGACTGATCTTGGGTTCAATACAAAAGGCCCATGTCGGAGTCACCTAGTGCAG”, the binding signal was 4770 fluorescence intensity (a.u.). As for “AGTTTATTGCCAATTTTAATAAGTACATATAAAATCTTGCCGGAGTCACCTAGTGCAG”, the binding signal is 14600 fluorescence intensity (a.u.). In the case of “CAATTAACCTTTACAGGTTAATTTTGTTTGATCAATTGCACGGAGTCACCTAGTGCAG”, the binding signal was 4000 fluorescence intensity (a.u.). For the sequence “GATATCAATCTTTGTCCTAATGAACAGTAATGATGGTCTCCGGAGTCACCTAGTGCAG”, the binding signal was 7430 fluorescence intensity (a.u.). As for “GCCTAAATAGACTCAATTCAGCCTTATATAAGTCAAAGAACGGAGTCACCTAGTGCAG”, the figure is 4990 fluorescence intensity (a.u.).

In the case of “AATATGAATGATTAAAATTCTTCATTTTAGACATACCTCACGGAGTCACCTAGTGCAG”, the binding signal is 22200 fluorescence intensity (a.u.).

As for “TGATGATTGTTAGTGGATGATGATGTGGCATATTTGCATGCGGAGTCACCTAGTGCAG”, the binding signal is 44300 fluorescence intensity (a.u.). “ATGCCTCTAATTTCATGTTTAATAATATTGTAATACATATCGGAGTCACCTAGTGCAG”: the binding signal was 3940 ± 125 fluorescence intensity (a.u.). “TGACAAACTCCACCTTAATTAAATATTGGTCTCGTTTCACCGGAGTCACCTAGTGCAG”: the binding signal was 4330 fluorescence intensity (a.u.). As to “AGAAAATTGGATGATGGACGTCCTTTTGGTTTGCTAGCTTCGGAGTCACCTAGTGCAG”, the binding signal was 25400 fluorescence intensity (a.u.). With “GATAATTTGATGCTAGTTTGATTCCAAGCTCCATTGCATCCGGAGTCACCTAGTGCAG”, the binding signal was 28000 fluorescence intensity (a.u.). As for “CCGAGCTGATTAACTATGAAAGTCAAGGCCAAGTCAATATCGGAGTCACCTAGTGCAG”, the binding signal was 8800 fluorescence intensity (a.u.).

Regarding “AATGACATTACACTCAAGTTCAATCAAATCATAACTTCACCGGAGTCACCTAGTGCAG”, the binding signal is 7260 fluorescence intensity (a.u.). “TCTAATTTGACAGAAAACATCCAAGGAAATCTTGCAAATTCGGAGTCACCTAGTGCAG”: the binding signal is 31700 fluorescence intensity (a.u.). On to “TAATGATGGAAACTTCTCCTACTTGGCAGTATGTTATGGTCGGAGTCACCTAGTGCAG”, for which the binding signal was 4550 fluorescence intensity (a.u.). “GTTATTTATTGATTAAACCCAACATCTACATAAACCACATCGGAGTCACCTAGTGCAG”: the binding signal was 15400 fluorescence intensity (a.u.). Then “ATCTGTAATTTATTTTATTATTAGTCTACGTTTAATATTTCGGAGTCACCTAGTGCAG”, with 8970 fluorescence intensity (a.u.); and “GGGCGTGTGGTTGAGAACTTGATTGGGATGATGATGAGACCGGAGTCACCTAGTGCAG”, with 12200 fluorescence intensity (a.u.). Regarding “AAAATAAATTTGACTGTGAATATACGTTAACTGGTCATAGCGGAGTCACCTAGTGCAG”, the binding signal was 23100 fluorescence intensity (a.u.). In the case of “TTAAATGCAACCAGAAATTTAATTGAATTGAGCTGGAAGCCGGAGTCACCTAGTGCAG”, the binding signal is 9630 fluorescence intensity (a.u.). Consider “CCCGAATAAACTGAGATGTTGGTTCAAGAATTACCATCCTCGGAGTCACCTAGTGCAG”, for which the binding signal was 3750 fluorescence intensity (a.u.). Take “CTTGTCCGCTTAATTAAATTGATACCATTTTCGTTCTTGTCGGAGTCACCTAGTGCAG”: the binding signal was 23700 fluorescence intensity (a.u.). Regarding “TATATATATATATATATATGTATGTAGAGAGATTATTTTACGGAGTCACCTAGTGCAG”, the binding signal was 7560 fluorescence intensity (a.u.). Consider “TCCAACTCCAATCAGTACAAATATCTCAGAACCATGGCACCGGAGTCACCTAGTGCAG”, for which the binding signal is 7500 fluorescence intensity (a.u.). As to “TCACATATAGAATATGATTGGGGTCCAGCCCAAGAGAGTCCGGAGTCACCTAGTGCAG”, the binding signal was 5480 fluorescence intensity (a.u.).

Take “AATAAAATTAGATGATGAATGATTGTAATTGGTTAAGATACGGAGTCACCTAGTGCAG”: the binding signal is 26100 fluorescence intensity (a.u.). On to “TTTTAAACTGTCAGTAGAGTAAACTATGGGCTAGACAGCACGGAGTCACCTAGTGCAG”, for which the binding signal is 4060 fluorescence intensity (a.u.). On to “ATACAATTAATATAATATATGGTCCCACGTGTTATATGCGCGGAGTCACCTAGTGCAG”, for which the binding signal was 7130 fluorescence intensity (a.u.). With “TTGACATAATATAATCATGTGATATCTTATTGTAAAGATTCGGAGTCACCTAGTGCAG”, the binding signal is 10400 fluorescence intensity (a.u.). In the case of “CTAAACAGGCTCTAAGTTTGGACGCTCCAAAGAGTGGCCGCGGAGTCACCTAGTGCAG”, the binding signal is 7940 fluorescence intensity (a.u.). As for “TTAATTAATCACCTCCTAATGATCTGCCTCATTTTGCGTGCGGAGTCACCTAGTGCAG”, the binding signal was 17600 fluorescence intensity (a.u.). Regarding “CCGAGATAATTACGTTGACTGACACATGGGGTCCAATCCACGGAGTCACCTAGTGCAG”, the binding signal is 39900 fluorescence intensity (a.u.). “AAAATTAATTTATAGACAATTTTGTTATATATTTATTCATCGGAGTCACCTAGTGCAG”: the binding signal was 29700 fluorescence intensity (a.u.). For the sequence “AATTGATCTGCTAATGATTAATTGTTATGCATATGTCAGTCGGAGTCACCTAGTGCAG”, the binding signal was 19500 fluorescence intensity (a.u.). Consider “TTTGTAATAATTAACACTAATGATTTATGTGCTAATGGTTCGGAGTCACCTAGTGCAG”, for which the binding signal was 45400 fluorescence intensity (a.u.).
